Some of the results follow.

The assay deals with T1, OsWOX13 (Oryza sativa, UniProt Q5QMM3 1-267).
T1 sequence: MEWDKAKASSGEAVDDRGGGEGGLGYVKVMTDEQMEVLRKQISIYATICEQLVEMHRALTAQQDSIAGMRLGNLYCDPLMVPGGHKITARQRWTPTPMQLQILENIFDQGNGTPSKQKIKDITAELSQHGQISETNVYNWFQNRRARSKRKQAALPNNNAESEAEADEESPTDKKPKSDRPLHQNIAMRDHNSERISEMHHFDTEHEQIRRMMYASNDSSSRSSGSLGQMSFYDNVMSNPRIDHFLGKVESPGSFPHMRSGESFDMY
The assay can be described thus: protein-binding microarray (RPBM); PBS, 2% BSA, 51.3 ng/ul salmon testes DNA, 50 uM zinc acetate, 200 nM TF, 25 C, 1 h; high values mean tight binding. To be noted: protein: recombinant; tags: N-terminal polyhistidine and DsRed monomer fusion (pET32a); label: CyDye5-dUTP incorporated in the synthesized complementary strand; 3' TTTTT single-stranded linker to array surface; dsDNA, one strand shown. A digest of the protocol:
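The binding signal for each feature is its fluorescence intensity in arbitrary units. An Axon 4000B scanner was used to read a custom Agilent array that had been made double-stranded with Cy5-dUTP primer extension, blocked with 2% BSA, incubated at 25 °C for 1 h with 200 nM protein in PBS, 2% BSA, salmon testes DNA and 50 µM zinc acetate, and washed. The protein was an N-terminal polyhistidine–DsRed transcription factor fusion from E. coli BL21-CodonPlus, purified on Ni–NTA.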
In the case of “AAAATTAAATTGATGGTATTACTAGCATTAATTAGCCACTCGGAGTCACCTAGTGCAG”, the binding signal is 62800 fluorescence intensity (a.u.). The same measure for “GTCCCACAGAAATGATTGAGGGAAGAGTAAAACCTTCAAGCGGAGTCACCTAGTGCAG”: 17700 fluorescence intensity (a.u.). Take “GGAAAAGGAGATTGGCAGCGAGTGGCGTACCAGCTGTTGGCGGAGTCACCTAGTGCAG”: the binding signal is 5660 fluorescence intensity (a.u.). “GTTGCATATCAATCATCAAGAATCTCTTCAGAAAGAGGAGCGGAGTCACCTAGTGCAG”: the binding signal was 14000 fluorescence intensity (a.u.). The same measure for “CCAACATGATTTTGGCCCGTCAAGCGATACGTCGAAATCGCGGAGTCACCTAGTGCAG”: 4470 fluorescence intensity (a.u.); for “AAAATTGACTGTACAATGACATTTTGTAGAACTTGCACTCCGGAGTCACCTAGTGCAG”: 31200 fluorescence intensity (a.u.). On to “CCAAATATTTGACGTGACAGCATGAAAATTTTCGTTTTGGCGGAGTCACCTAGTGCAG”, for which the binding signal was 5470 fluorescence intensity (a.u.).

On to “TTTATATCGATCTAATAGATGGATTGGTTTTGAGATTGTTCGGAGTCACCTAGTGCAG”, for which the binding signal was 5170 fluorescence intensity (a.u.). Take “CCTAACTGGACCTCTATTTTGGAAGGGCTATCTCTGAACTCGGAGTCACCTAGTGCAG”: the binding signal is 4960 fluorescence intensity (a.u.). In the case of “TGTAAGACATAAATTATGCCAGCAATAAACATACCATTGTCGGAGTCACCTAGTGCAG”, the binding signal was 6810 fluorescence intensity (a.u.).

As for “ATATAATTCAAATTCAAATTTGAATCGGGTATATAAACTTCGGAGTCACCTAGTGCAG”, the binding signal is 3670 fluorescence intensity (a.u.). Take “AACTACTAACTGATTATTCCCAGTTTCACATTAAAGAATGCGGAGTCACCTAGTGCAG”: the binding signal is 15900 fluorescence intensity (a.u.). The same measure for “AGGAGCATATCTAATTGCTCTAATTGAATTCGATCAGTGTCGGAGTCACCTAGTGCAG”: 25200 fluorescence intensity (a.u.); for “CCAAATTGAAACTCTTGTCGTCCTCACCTGGAAGGAACCCCGGAGTCACCTAGTGCAG”: 37400 fluorescence intensity (a.u.). The same measure for “AATCAATAGTCAATGTGATTGATTCTATACTTTTATTTAACGGAGTCACCTAGTGCAG”: 10900 fluorescence intensity (a.u.). For “TGATTGTAACTGGATGACATGGACTATGTTTTGATGAATTCGGAGTCACCTAGTGCAG”, the binding signal was 3340 fluorescence intensity (a.u.). To “TCGTGACTAACTAATGACAGAATCAACTGAAAACGACCATCGGAGTCACCTAGTGCAG” belongs 13900 fluorescence intensity (a.u.). For the sequence “ATTTAAATTAGGTAATTAGTAAATTCAAATCAACTATAGTCGGAGTCACCTAGTGCAG”, the binding signal is 33800 fluorescence intensity (a.u.). As to “CCATTTCAACAGTTAATTTAGGCTATTTTGGTTTCAATCCCGGAGTCACCTAGTGCAG”, the binding signal is 3840 fluorescence intensity (a.u.). As to “TTAATAGATAGCACACGAAAACAAATATATTGAGAACATGCGGAGTCACCTAGTGCAG”, the binding signal is 4200 fluorescence intensity (a.u.). As for “AGTGATGACTGATCTATCAACCAAACCAACTCCCAACTCCCGGAGTCACCTAGTGCAG”, the binding signal was 25100 fluorescence intensity (a.u.). In the case of “AGAAATTAAACTCTAACTAGTATACGTATATTCACAGTCACGGAGTCACCTAGTGCAG”, the binding signal is 4760 fluorescence intensity (a.u.). The same measure for “ATATTTGACCAGAAATTAACGCTGCTGATGCGAGGTCAAACGGAGTCACCTAGTGCAG”: 4830 fluorescence intensity (a.u.).
